Experimental data published in patent publication US11795481B2, “Processes for producing a fermentation product” (Novozymes A/S, priority 2017, dated 2023).

System: multi-strain LAB culture
Test: SSF of control mash with 1% w/w infected mash, AA13 candidates, HPLC of organic acids and ethanol (Example 3)
Assay type: cell-based
Conditions: SSF 32° C. up to 24 hours, 20% DS; for % delta Ethanol / % delta Lactic Acid: vs No Treatment
Description: A control mash was prepared in-house with an industry relevant blend of AA369 and Protease Pfu using a Lab-O-Mat incubator for 2 hours at 85° C. and 36% DS to simulate typical industry conditions. The mash was then frozen prior to use in SSF. An infected mash was prepared by infecting the control mash with a multi-strain LAB culture grown in MRS. The bacteria in control mash was incubated overnight, and then frozen with 20% glycerol. For this experiment, 1% weight/weight of the infected mash was mixed into the control mash. This mimics an infection event at a large-scale ethanol facility. For SSF, all mash was prepared with 1000 ppm of urea to aid with yeast fermentation. All treatments were dosed with a baseline commercial glucoamylase GSA, while AA13 candidates were dosed at either 10 ug/g-DS or 50 ug/g-DS. SSF was performed at 5 g scale with 10 uL/g rehydrated Ethanol Red yeast at 32° C. for up to 24 hours at 20% DS. At the end of fermentation, samples were deactivated with 50 uL of 40% sulfuric acid and then centrifuged. The supernatant was filtered through a 0.2 μm filter and then measured for soluble carbohydrates and organic acids using an ion-exchange H-column on HPLC.

B1: Fusarium sp-75363: Fusarium sp-75363 AA13 polypeptide of SEQ ID NO: 132 (protein)
chain: MFYSSIITIVTLSTKVYGHGYLSQPMSRTGLNAEAGPDTCPECAILEPVTAWPDLDAAKVGRSGPCGYNARVSVDYNRPGANWGKEPVTTYSPGEVIDVQWCVDNNGDHGGMFTYRICQDQAIVDKFLDPDYIPTEAEKQEAEDCFEAGILPCTDVDGQSCEYSPDCTPDQPCWRNDWFTCKSFQGNDDGKGCRGVDDSPINSCYTSIAGGYTVSSKIKIPDYVSEHTLLSFKWNSFQTPQVYLTCADIAIKA
modifications: Fusarium sp_75363
- average Ethanol (AA13 dose 10 ug/g-DS): 78.1 g/L
- average Lactic Acid (AA13 dose 10 ug/g-DS): 3.2 g/L
- % delta Ethanol (AA13 dose 10 ug/g-DS): 0.6%
- % delta Lactic Acid (AA13 dose 10 ug/g-DS): −3.5%
- average Ethanol (AA13 dose 50 ug/g-DS): 78.5 g/L
- average Lactic Acid (AA13 dose 50 ug/g-DS): 3.3 g/L
- % delta Ethanol (AA13 dose 50 ug/g-DS): 1.2%
- % delta Lactic Acid (AA13 dose 50 ug/g-DS): −1.6%
